Measured values published in publication PMC4336329 (PLoS ONE, 2015).
In all, about 310,000 compounds went through this assay and about 14,000 (4.5%) showed an effect of 50% or more. The effect is printed as a negative number. This is one part of the list.

What follows are compounds tested against human ether-à-go-go-related gene (hERG) potassium channel (human, UniProt Q12809) (assay: primary screen, population patch clamp on CHO cells stably expressing hERG).
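Also: peak tail current of the secondary pulse compared with the same well before compound.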

Chain of human ether-à-go-go-related gene (hERG) potassium channel (Q12809 whole entry, looked up): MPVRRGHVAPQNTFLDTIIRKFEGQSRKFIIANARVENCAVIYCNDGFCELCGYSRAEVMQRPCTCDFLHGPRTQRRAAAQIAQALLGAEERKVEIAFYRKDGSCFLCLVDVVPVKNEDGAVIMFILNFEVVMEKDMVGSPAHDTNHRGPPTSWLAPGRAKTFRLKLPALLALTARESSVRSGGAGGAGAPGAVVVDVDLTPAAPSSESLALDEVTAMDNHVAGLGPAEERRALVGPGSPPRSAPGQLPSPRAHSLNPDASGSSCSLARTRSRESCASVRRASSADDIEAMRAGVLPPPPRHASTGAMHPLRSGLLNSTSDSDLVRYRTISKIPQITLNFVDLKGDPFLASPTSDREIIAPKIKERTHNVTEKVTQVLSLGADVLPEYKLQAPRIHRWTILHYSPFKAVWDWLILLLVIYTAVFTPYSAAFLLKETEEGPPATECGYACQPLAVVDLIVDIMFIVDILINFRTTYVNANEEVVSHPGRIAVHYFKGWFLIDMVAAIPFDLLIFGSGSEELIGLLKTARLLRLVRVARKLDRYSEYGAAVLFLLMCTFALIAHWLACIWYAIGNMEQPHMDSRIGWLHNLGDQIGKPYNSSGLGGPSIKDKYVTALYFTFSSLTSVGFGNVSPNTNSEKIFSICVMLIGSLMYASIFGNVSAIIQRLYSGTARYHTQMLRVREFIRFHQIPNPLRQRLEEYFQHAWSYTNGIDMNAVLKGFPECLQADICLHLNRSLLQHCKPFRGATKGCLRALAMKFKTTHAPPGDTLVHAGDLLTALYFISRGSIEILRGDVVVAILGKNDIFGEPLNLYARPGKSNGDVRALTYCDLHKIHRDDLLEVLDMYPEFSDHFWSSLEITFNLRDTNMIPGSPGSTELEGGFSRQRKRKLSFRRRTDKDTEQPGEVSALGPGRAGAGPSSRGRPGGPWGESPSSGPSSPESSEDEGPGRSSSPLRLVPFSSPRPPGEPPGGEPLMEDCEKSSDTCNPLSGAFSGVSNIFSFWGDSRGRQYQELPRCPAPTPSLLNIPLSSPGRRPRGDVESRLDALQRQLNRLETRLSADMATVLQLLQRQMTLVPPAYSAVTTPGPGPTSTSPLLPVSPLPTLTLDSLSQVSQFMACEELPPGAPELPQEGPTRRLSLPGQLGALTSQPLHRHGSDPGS

SMILES	hERG current change (%, negative = inhibition) at 10uM [%]
CC(=O)Nc1ccc(-c2cc(N)n(-c3ccccc3)n2)cc1	20.2
CCCCCC(=O)Nc1cc(S(=O)(=O)N2CCOCC2)ccc1N1CCCC1	-26.4
O=S(=O)(Cc1cc(Oc2ccccc2)nc(-c2ccccc2)n1)c1ccccc1	9.77
COc1ccccc1CNC(=O)COC(=O)c1cccc(S(=O)(=O)N2CCCC2)c1	31.6
CCCCN(C)CCNC(=S)Nc1ccc2nc(N3CCN(CC)CC3)cc(C)c2c1	2.83
O=C(CSc1nc2ccccc2n1S(=O)(=O)c1cccc([N+](=O)[O-])c1)NCc1cccs1	-0.33
CCOC(=O)c1c(C)nc2c(C#N)cnn2c1C	-38.2
CCn1nc(C)c(CN2CCc3c([nH]c4ccccc34)C2c2ccc(F)c(OC)c2)c1C (stereo not drawn)	-48.2
CN(C)C1=NC[C@H](Cc2ccccc2)N1CCc1cccc(F)c1	-64.1
CNc1ccc(/C=C/C(=O)c2cccc3ccccc23)cc1[N+](=O)[O-]	3.93
Cc1cc([N+](=O)[O-])ccc1NC(=O)CN1CCN(Cc2ccccc2)CC1	-73.9
O=[N+]([O-])c1ccc(COc2cccnc2)cc1	-6.51
Cc1nn(Cc2ccccc2)c(C)c1NC(=O)CCCn1nc([N+](=O)[O-])c(Cl)c1C	-43
CCCCn1c(=O)[nH]c(=O)c2c1nc(-c1ccc(-c3ccc(F)cc3)o1)n2C	-55
CCN(CC)S(=O)(=O)c1ccc(C2CNC(=O)C2)cc1 (stereo not drawn)	-34.3
COc1cc(C(=O)OCC(=O)NC2CCS(=O)(=O)C2)c([N+](=O)[O-])cc1OC (stereo not drawn)	11.9
Cc1noc2ncnc(N3CCN(c4cccc(Cl)c4)CC3)c12	-52
Cc1ccc(NC(=O)c2cc3c(s2)CCCC3)cc1	-12.8
Cc1ccc2oc(=O)n(CC(=O)OCCC(C)C)c2c1	6.37

SMILES	hERG current change (%, negative = inhibition) at 10uM [%]
Cc1cc(OCC(=O)N(C(C)C)C(C)C)cc(C)c1Br	-6.19
Cc1cccc(N2CCN(S(=O)(=O)c3cccc4nonc34)CC2C)c1 (stereo not drawn)	31.3
Cc1cccc(Oc2ccccc2N)c1	-5.81
COc1cc(S(=O)(=O)NCc2ccncc2)c(OC)cc1Cl	6.57
COc1cccc(NC(=O)CN(C)C(=O)c2cccnc2Nc2cccc(C(F)(F)F)c2)c1	4.87
CN(C)C(/C=C/Nc1ccc(F)cc1)=C(C#N)C#N	-8.47
CC(C)(C)C1CCc2onc(C(=O)Nc3cnn(Cc4ccc(F)cc4)c3)c2C1 (stereo not drawn)	11.9
COc1ccccc1-c1nc2ccccc2c(=O)n1NC(=O)c1cccs1	2
CCCC(=O)N1CC(=O)Nc2ccc(Br)cc2C1c1ccc(F)cc1 (stereo not drawn)	-21.5
O=C(Nc1cccc(-c2cnc3ccccc3n2)c1)c1ccco1	-32.6
COCc1cc(C)nc(OCC(=O)N/N=C/c2ccc(-c3cc([N+](=O)[O-])ccc3C)o2)c1C#N	-23.6
CCCN1CCCc2ccccc21.Cl	7.61
CCCN(CCC)CCCNC(=O)CC1Nc2ccccc2NC1=O (stereo not drawn)	10.5
O=C(O)CCc1nn2c3ccccc3n(CCN3CCCCC3)c2nc1=O	3.59
CCOc1ccc2nc(NC(=O)COC)sc2c1	-11
c1ccc(Cn2cc(CN3CCCCO3)c(-c3ccc4c(c3)OCO4)n2)cc1	-1.3
Cc1csc(=O)n1CC(=O)OCC(=O)NNC(=O)c1ccc(Cl)cc1	-7.47
COc1ccccc1Nc1nc(-c2cccs2)cs1	-10.7
O=C(N=NC(=O)c1ccc2c(O)n(CC3CCCO3)c(O)c2c1)c1cccnc1 (stereo not drawn)	-6.05

SMILES	hERG current change (%, negative = inhibition) at 10uM [%]
O=C1CCN(Cc2ccccc2)CCN1CCO	20.5
COc1ccc(C(=O)N2CCCC(c3nc(-c4ccc(C)o4)no3)C2)cc1OC (stereo not drawn)	-8.29
CCC(=O)Nc1ccc(-c2nnc(SCC(=O)N3CCCCC3)n2C)cc1	-9.31
Clc1cc(Cl)c(Cl)c(Cl)c1Cl	8.83
CCOc1ccccc1-c1nnc(CS(=O)(=O)c2ccccc2)o1	-52.5
COc1ccc(OCCNC(=O)c2ccc(C)cc2)cc1	6.99
O=C(Cn1c(=O)oc2cc(S(=O)(=O)N3CCCC3)ccc21)NC1CCCc2ccccc21 (stereo not drawn)	5.12
Cc1ccc(NC(=O)C(=O)NCCOc2ccccc2Cl)cc1	16.3
COCC(=O)Nc1nnc(SCC(=O)N2C(C)CCCC2C)s1 (stereo not drawn)	15.2
CCCCN(C)CCCNC(=O)c1cc(=O)[nH]c2ccc(S(=O)(=O)N3CCCCC3C)cc12 (stereo not drawn)	13.9
COCCn1nnnc1CN1C2CCCC1CC(NC(C)=O)C2 (stereo not drawn)	-6.26
O=C1CC(C(=O)N2CCN(c3ccccn3)CC2)CN1Cc1ccccc1Cl (stereo not drawn)	-42.3
Nc1nnc(-c2cc3ccccc3oc2=O)s1	15.6
O=C(Nc1cccc(C(F)(F)F)c1)C(Sc1cccc[n+]1[O-])c1ccccc1 (stereo not drawn)	-42.7
COc1cccc(C(=O)N/N=C/c2ccc(OC3CSC3)cc2)c1	5.4
O=C(NCCCN1CCCCC1)C1CCC(CNS(=O)(=O)c2cccc3nsnc23)CC1 (stereo not drawn)	9.74
COc1cc(-c2noc(-c3ccco3)n2)cc(OC)c1OC	11
Cc1[nH]c2ccc(C(=O)N3CCCCC3)cc2c1C	-20.7
Cc1cc(NS(=O)(=O)c2ccc(NS(=O)(=O)c3ccc(Br)cc3)cc2)no1	9.85
